PMC4336329 (PLoS ONE, 2015)
Hit rate of the full screen: of about 310,000 compounds, about 2,200 (0.71%) showed an effect of 50% or more. Effects have a minus sign here. The list shows a part of the results.

Target: human ether-à-go-go-related gene (hERG) potassium channel (human, UniProt Q12809)
Experiment: primary screen, population patch clamp on CHO cells stably expressing hERG

Sequence of human ether-à-go-go-related gene (hERG) potassium channel (Q12809 whole entry, looked up): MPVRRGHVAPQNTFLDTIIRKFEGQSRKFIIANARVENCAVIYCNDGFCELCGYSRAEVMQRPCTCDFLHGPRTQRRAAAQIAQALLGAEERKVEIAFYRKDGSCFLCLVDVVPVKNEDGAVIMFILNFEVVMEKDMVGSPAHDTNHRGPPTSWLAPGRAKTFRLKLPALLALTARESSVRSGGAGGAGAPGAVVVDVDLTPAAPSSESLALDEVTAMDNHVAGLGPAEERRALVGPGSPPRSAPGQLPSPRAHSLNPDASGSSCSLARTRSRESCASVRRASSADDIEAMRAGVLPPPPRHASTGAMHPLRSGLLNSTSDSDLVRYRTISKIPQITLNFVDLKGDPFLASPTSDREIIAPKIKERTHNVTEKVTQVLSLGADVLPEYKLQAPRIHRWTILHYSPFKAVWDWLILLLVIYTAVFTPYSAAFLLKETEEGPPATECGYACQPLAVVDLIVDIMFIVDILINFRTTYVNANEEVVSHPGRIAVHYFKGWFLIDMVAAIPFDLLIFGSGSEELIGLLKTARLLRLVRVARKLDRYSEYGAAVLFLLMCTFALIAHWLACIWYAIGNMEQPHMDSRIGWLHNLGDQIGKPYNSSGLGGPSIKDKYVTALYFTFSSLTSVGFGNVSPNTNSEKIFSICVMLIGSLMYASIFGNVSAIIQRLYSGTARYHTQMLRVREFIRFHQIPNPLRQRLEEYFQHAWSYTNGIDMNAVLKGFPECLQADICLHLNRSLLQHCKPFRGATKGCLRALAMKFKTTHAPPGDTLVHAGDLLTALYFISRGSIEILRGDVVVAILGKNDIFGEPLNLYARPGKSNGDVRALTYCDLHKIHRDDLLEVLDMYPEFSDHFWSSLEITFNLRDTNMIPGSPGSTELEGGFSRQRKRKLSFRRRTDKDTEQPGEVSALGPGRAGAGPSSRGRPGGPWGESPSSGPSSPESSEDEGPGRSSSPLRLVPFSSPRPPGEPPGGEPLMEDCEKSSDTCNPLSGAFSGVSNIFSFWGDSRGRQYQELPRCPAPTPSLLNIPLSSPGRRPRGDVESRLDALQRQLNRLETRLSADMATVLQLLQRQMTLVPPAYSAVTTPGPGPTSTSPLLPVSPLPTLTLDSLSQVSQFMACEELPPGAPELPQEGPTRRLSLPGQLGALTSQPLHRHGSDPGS

Compound	hERG current change (%, negative = inhibition) at 1uM
CC(NC(=O)c1cccs1)c1n[nH]c(=S)n1C (stereo not drawn)	12.1%
COc1ccccc1C(=O)NCCC(=O)NCCOc1ccccc1	11.5%
COc1ccc(/C=N/Nc2nc(N3CCCCC3)nc(N3CCCCC3)n2)cc1[N+](=O)[O-]	5.14%
Cc1cc(Cl)ccc1OCCCC(=O)N/N=C/c1cccc([N+](=O)[O-])c1	17.2%
CCOc1ccc(S(=O)(=O)N2CCCC(C(=O)NCc3ccncc3)C2)cc1C (stereo not drawn)	18.3%
O=c1[nH]c(C2CCN(S(=O)(=O)c3ccccc3F)CC2)nc2c1nnn2Cc1ccc(OC(F)(F)F)cc1	16.7%
CC(C)(C)c1cc(NS(=O)(=O)c2ccc(Br)s2)no1	12.7%
O=C(NCC(=O)N1CCN(S(=O)(=O)c2ccccc2)CC1)c1ccc2ccccc2c1	-3.38%
CCOC(=O)[C@H]1[C@H]2COc3ccccc3[C@@H]2N2C(=O)c3cc(F)c(F)cc3NC(=O)[C@@]12C	7.08%
Cn1cccc1/C=N/NC(=O)Cc1cccc2ccccc12	2.03%
COc1ccccc1NC(=O)CN1CCC(n2c(C)nc3cc(F)ccc32)CC1	-2.23%
CNC(=O)C1CC(=O)N(c2ccc(C)cc2)C1 (stereo not drawn)	-0.0571%
COC(=O)C(c1ccccc1)N(Cc1cccc(CN(C(C(=O)OC)c2ccccc2)S(C)(=O)=O)c1)S(C)(=O)=O (stereo not drawn)	5.6%
O=C(c1cc(-c2ccco2)on1)N1CCN(C(c2ccccc2)c2ccccc2)CC1	0.285%
COc1ccc(NC(=S)N2CCN(Cc3ccccc3)CC2)cc1	13.7%
O=S(=O)(c1cccc(Cl)c1Cl)N1CCCCC1	5.43%
CCOC(=O)C(NC(=O)CC)(Nc1ccc(S(N)(=O)=O)cc1)C(F)(F)F (stereo not drawn)	5%
COc1ccc(C(C)(C)NC(=O)C2CCC(=O)N(CCCN3CCCC3=O)C2)cc1 (stereo not drawn)	10.8%
Cl.OC(COc1ccc(Cl)cc1)CN1CCN(c2ccccc2)CC1 (stereo not drawn)	0.0675%
CCCCCC/C=N/Nc1nnc(Cc2ccc(OC)c(OC)c2)c(=O)[nH]1	11.3%
COc1cccc(NC(=O)c2oc3ccccc3c2NC(=O)C2CC2)c1	6.84%
CSCCC(NC(=O)C12CC3CC(CC(C3)C1)C2)C(=O)OCC(=O)c1ccc(Cl)cc1 (stereo not drawn)	4.99%

Compound	hERG current change (%, negative = inhibition) at 1uM
CCOc1cc(S(=O)(=O)n2cc(-c3ccc(F)cc3)c(N)n2)cc(OCC)c1OCC	18.2%
CCCCCCN1C(=O)C(O)=C(C(C)=O)C1c1ccc(Cl)cc1 (stereo not drawn)	-1.58%
C=CCn1nnnc1SCC(=O)Nc1cccc(C(F)(F)F)c1	5.64%
COc1ccc(OC)c(NS(=O)(=O)c2ccc(SC)cc2)c1	-0.314%
N/C(=N\c1nc2ccccc2o1)NC(=O)c1ccccc1NC(=O)c1ccccc1	12.3%
C=CCNC(=O)C1CC(=O)N(c2ccc(OCC(=O)Nc3ccc(Cl)c(C(F)(F)F)c3)cc2)C1 (stereo not drawn)	6.37%
CCCCn1c(N)c(N(CC(C)C)C(=O)c2ccc(OCc3c(C)noc3C)cc2)c(=O)[nH]c1=O	7.88%
CC1CCN(CC(=O)N2c3ccccc3CCc3ccccc32)CC1	12%
CSc1nsc(SC)c1CO	13.6%
O=C(NCc1ccc2c(c1)OCO2)C1CCCN(C(=O)c2ccc(Cl)cc2)C1 (stereo not drawn)	-4.22%
COc1ccc(C)cc1Nc1ccc(C(=O)O)cc1[N+](=O)[O-]	8.19%
O=C1COc2ccc(C(=O)COC(=O)Cc3ccc(F)cc3)cc2N1	-8.79%
O=C(NCc1ccccc1F)C1CCN(S(=O)(=O)c2ccccc2)CC1	-0.959%
COc1ccc(Cc2nc3ccc(C(=O)N4CCCC4)cc3o2)cc1OC	16.3%
Cc1ccc(C)c(NC(=O)CSc2nc(C)cs2)c1	7.55%
CCN(CC)c1ccc(C=NCCNS(=O)(=O)c2ccc(C)cc2)cc1	21.8%
COc1ccccc1C(=O)NCCC(=O)N1CC(=O)Nc2ccccc21	14.1%
Fc1ccc(NC(=S)Nc2cc(-c3ccccc3)[nH]n2)cc1Cl	9.99%
CC(=O)Nc1sc(N/N=C/c2ccc(O)cc2)nc1-c1ccc(C)cc1	-0.437%
O=C(NCc1ccccn1)C(=O)Nc1ccccc1	4.81%
Cc1ccc(S(=O)(=O)N(Cc2c(F)cccc2Cl)C(=O)N2CCN(C)CC2)cc1	3.55%
Cc1ccccc1NC(=O)c1cc2c(C)nc3ccccc3c2o1	17.2%

Compound	hERG current change (%, negative = inhibition) at 1uM
O=C(NCC(c1ccco1)N1CCN(c2ccccc2F)CC1)c1ccco1 (stereo not drawn)	3.23%
Cc1ccc(S(=O)(=O)NNC(=O)c2cnn(-c3ccccc3)c2-n2cccc2)cc1	-2.33%
COc1ccc(/C=C2/C(=O)ON=C2C)cc1Br	14.1%
CC(=O)Nc1ccc(NC(=O)c2cc(S(=O)(=O)N3CCCCC3)ccc2C)cc1	7.9%
COC(=O)C1Sc2[nH]c(=O)sc2C2c3ccccc3OC(=O)C12 (stereo not drawn)	-18.8%
CCOC(=O)C(=O)N1CCN(c2cc3c(cc2[N+](=O)[O-])n(C)c(=O)n3C)CC1	-2.04%
Cc1cc(OCC(=O)Nc2c(C)n(C)n(-c3ccccc3)c2=O)ccc1[N+](=O)[O-]	7.71%
Cc1nc2ccc(C(=O)NCc3ccc4c(c3)OCO4)cc2s1	11%
CNC(=O)CCn1nc(-c2ccc(Cl)cc2)c2ccccc2c1=O	6.83%
COc1ccccc1N1CCN(/N=C/c2cccc(Cl)c2)CC1	9.71%
CN1CCN(C(=O)CCN2C(=O)/C(=C\c3ccccc3F)SC2=S)CC1	9.46%
c1ccc(-n2c(SCc3ccncc3)nnc2-c2ccco2)cc1	-3.95%
COc1ccc(S(=O)(=O)NNC(=O)c2cc3cc4ccccc4nc3s2)cc1	7.6%
CC(C)[C@H](N)c1cn([C@@H](CO)C(=O)N2CCNCC2)nn1	7.02%
CCOC(=O)COc1ccc(Cl)cc1C1NC(=O)NC(C)=C1C(C)=O (stereo not drawn)	16.7%
COC(=O)C1=C(C)NC2=C(C(=O)CC(C)(C)C2)C1c1ccccn1 (stereo not drawn)	2.31%
Cc1ccc([N+](=O)[O-])cc1NC(=O)CCc1ccccc1	8.96%
CC(C)(C)c1ccc(S(=O)(=O)N2CCc3nc4ccccc4c(C(=O)O)c3C2)cc1	12%
CCCCN(CC)Cc1ccc(CNC(=O)Nc2ccccc2)o1	-2.8%
COC(=O)c1cc(NS(=O)(=O)c2ccc(N3CCOCC3)c([N+](=O)[O-])c2)cc(C(=O)OC)c1	9.53%
CCN(CC)C(=O)NC1CC(=O)N(c2ccc(OC)cc2)C1 (stereo not drawn)	16.7%
COc1cccc(NC(=O)Cc2ccc(C)cc2)c1	7.4%

Compound	hERG current change (%, negative = inhibition) at 1uM
O=C(CN(CCCN1CCOCC1)C(=O)Cn1nnc(-c2ccc(F)cc2)n1)NC1CCCCC1	-1.74%
O=C(O)c1ccc(N/N=C/c2ccc(-c3ccc(Cl)cc3Cl)o2)cc1	11.6%
Cc1ccc(C)c(S(=O)(=O)Nc2ccc(C(=O)NCCCN3CCOCC3)cc2)c1	8.06%
CCCN(CCC)C(=O)C1CC(=O)OC12CCCCC2 (stereo not drawn)	6.38%
CCOC(=O)C1=C(c2ccccc2)NC(=S)NC1C (stereo not drawn)	9.21%
COc1cc(N)ccc1NC(=O)c1cc2ccccc2o1	8.77%
CCc1ccc2c(CC(=O)NNC(=O)c3ccncc3)coc2c1	11.6%
CNC(=O)CSc1cn(CC(=O)N(C(C)C)C(C)C)c2ccccc12	9.71%
COC(=O)[C@@H](NC(=O)Nc1ccc2c(c1)OCCO2)C(C)C	6.37%
Cc1ccc(-c2cc(C(=O)NCCCN3CCCC3)c3ccccc3n2)cc1C	-2.04%
CNC(=O)N(C)c1nnc(C(C)(C)C)s1	11.2%
COc1ccc(CCNC(=O)C(=O)NCC2OCCN2S(=O)(=O)c2ccc(C)cc2)cc1 (stereo not drawn)	7.8%
CC(C)n1c(N2CCN(C(=O)Nc3ccc(F)cc3F)CC2)nc2ccccc21	-8.78%
O=C(COc1ccc2c(c1)CCC2)Nc1ccccn1	1.17%
Cc1ccc2[nH]c(O)c(N=NC(=O)C3CC3c3ccccc3)c2c1Br (stereo not drawn)	-5.29%
COc1ccc2c(C(=O)CN(C)C3CCCCC3)c[nH]c2c1	15.5%
CCOC(=O)CN1C(=O)N[C@@H](CCc2ccccc2)[C@H](C(C)=O)[C@H]1C	8.86%
Cc1cc(NC(=O)CSc2nnc(C3CC3)n2-c2ccccc2)no1	1.75%
COc1cccc(C=Nc2ccc3c(c2)OCCO3)c1O	13.3%
CCOc1ccc(S(=O)(=O)N2CCN(Cc3ccccc3)CC2)c2cccnc12	-5.92%
CSC1=NSC2=NC(=O)/C(=C\c3cccs3)C(=N)N12	11.7%
